Reference: article PMC5655436
These are yes or no findings as the source states them, for the method shown. Binding seen in cells or lysates may run through a third protein. Some binding calls cover weakened binding; strength is not graded here.

Protein sequences, listed by entry. Tags and fused reporters are not part of them. Lines headed by an entry give the natural chain unless they say otherwise; changes in a name come on top. Chains listed by the source or under a name are the forms on record and can include a tag or linker.
UniProt Q9BQA1: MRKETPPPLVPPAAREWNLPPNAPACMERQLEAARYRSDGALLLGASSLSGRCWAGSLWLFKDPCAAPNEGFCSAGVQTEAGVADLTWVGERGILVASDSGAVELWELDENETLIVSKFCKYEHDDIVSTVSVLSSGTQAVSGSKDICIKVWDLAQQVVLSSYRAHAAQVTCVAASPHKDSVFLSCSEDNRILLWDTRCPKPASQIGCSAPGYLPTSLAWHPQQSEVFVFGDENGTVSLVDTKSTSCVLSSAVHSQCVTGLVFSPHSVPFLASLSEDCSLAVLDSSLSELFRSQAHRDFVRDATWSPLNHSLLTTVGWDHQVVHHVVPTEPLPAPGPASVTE
UniProt Q99873: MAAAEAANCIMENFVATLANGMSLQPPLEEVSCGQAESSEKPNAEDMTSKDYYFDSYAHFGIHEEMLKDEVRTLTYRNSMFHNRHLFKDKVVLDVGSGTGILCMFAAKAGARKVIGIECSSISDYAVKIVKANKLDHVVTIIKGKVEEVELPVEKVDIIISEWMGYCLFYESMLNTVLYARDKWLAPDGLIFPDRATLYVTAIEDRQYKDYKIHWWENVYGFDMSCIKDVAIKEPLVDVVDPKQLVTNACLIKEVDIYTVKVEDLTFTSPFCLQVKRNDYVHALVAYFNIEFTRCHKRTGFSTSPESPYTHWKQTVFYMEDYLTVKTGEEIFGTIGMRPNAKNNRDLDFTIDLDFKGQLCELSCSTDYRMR
UniProt O60678: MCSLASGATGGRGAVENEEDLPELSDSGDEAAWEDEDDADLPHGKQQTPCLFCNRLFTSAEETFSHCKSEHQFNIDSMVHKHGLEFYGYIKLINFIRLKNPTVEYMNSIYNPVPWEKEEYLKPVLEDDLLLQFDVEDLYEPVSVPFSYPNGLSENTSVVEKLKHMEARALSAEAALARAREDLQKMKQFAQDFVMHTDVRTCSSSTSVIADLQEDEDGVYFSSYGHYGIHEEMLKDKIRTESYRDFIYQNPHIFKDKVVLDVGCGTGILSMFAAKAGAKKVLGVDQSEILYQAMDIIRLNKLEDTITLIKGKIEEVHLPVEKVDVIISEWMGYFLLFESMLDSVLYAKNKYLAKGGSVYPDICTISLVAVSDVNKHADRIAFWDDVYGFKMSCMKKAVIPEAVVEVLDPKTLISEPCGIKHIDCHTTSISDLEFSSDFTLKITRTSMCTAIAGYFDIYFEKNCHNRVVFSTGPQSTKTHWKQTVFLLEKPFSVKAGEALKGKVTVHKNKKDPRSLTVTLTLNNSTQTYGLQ
UniProt P03148: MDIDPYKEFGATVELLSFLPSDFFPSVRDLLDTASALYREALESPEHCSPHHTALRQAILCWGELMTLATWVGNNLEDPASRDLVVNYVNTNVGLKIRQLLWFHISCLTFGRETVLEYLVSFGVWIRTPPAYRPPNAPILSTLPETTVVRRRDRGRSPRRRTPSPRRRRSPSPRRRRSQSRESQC
UniProt O14744: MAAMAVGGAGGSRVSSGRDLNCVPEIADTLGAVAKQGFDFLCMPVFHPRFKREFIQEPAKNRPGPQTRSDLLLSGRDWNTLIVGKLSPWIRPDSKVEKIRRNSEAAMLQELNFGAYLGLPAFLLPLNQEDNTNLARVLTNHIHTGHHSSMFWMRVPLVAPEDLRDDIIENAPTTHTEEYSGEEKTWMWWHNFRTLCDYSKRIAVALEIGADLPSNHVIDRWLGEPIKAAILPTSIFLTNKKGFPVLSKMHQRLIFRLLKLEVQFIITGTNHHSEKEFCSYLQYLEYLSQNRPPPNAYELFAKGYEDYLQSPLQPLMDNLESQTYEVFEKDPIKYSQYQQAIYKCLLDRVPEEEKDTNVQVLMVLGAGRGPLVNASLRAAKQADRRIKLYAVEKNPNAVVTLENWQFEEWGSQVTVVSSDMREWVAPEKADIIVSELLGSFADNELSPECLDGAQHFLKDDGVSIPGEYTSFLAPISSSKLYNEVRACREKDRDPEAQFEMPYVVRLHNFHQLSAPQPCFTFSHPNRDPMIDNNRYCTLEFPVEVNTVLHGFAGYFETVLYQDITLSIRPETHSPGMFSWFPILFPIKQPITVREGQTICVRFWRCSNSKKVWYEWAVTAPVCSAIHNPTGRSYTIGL
PRMT5v2 (PRMT5 splice variant 2, isoform b), Flag-tagged, expressed in HEK293T cells (O14744-2, form named): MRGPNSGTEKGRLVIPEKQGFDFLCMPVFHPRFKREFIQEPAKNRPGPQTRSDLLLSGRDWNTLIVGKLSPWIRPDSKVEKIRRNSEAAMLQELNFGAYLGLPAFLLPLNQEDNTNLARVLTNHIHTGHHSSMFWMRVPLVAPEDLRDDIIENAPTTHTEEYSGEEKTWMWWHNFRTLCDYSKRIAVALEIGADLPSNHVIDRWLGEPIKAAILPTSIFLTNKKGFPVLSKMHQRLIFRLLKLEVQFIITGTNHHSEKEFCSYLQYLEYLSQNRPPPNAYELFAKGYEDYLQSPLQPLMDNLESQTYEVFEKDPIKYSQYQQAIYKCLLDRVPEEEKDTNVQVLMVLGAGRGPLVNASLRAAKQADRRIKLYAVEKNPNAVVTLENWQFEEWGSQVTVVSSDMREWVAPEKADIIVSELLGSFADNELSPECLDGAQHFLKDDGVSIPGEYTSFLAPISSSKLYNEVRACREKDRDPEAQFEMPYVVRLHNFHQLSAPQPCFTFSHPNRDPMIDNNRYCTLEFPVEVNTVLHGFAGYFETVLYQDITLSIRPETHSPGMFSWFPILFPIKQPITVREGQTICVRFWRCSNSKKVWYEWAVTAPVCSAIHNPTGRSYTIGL

How the values were obtained:
[1] = target: MEP50/WDR77 (methylosome protein 50), Flag-tagged, expressed in HEK293T cells (human) (UniProt Q9BQA1); experiment: co-IP; HEK293T cells co-transfected with Flag-tagged PRMTs or MEP50 and HBc-V5/AP; lysates (400 μg) in 20 mM HEPES pH 7.9, 50 mM NaCl, 5 mM EDTA, 1% Igepal CA-630, 10% glycerol; IP with anti-Flag magnetic beads at 4°C overnight; HBc detected with NeutrAvidin-HRP
[2] = target: PRMT1, Flag-tagged, expressed in HEK293T cells (human) (UniProt Q99873); experiment: as above
[3] = target: PRMT3, Flag-tagged, expressed in HEK293T cells (human) (UniProt O60678); experiment: as above
[4] = target: GST-HBc (full-length HBV core protein, aa 1-185, genotype A, subtype adw2, fused to GST) (Hepatitis B virus, genotype A, subtype adw2) (UniProt P03148); experiment: pull-down; lysates of HEK293T cells transfected with Flag-tagged PRMTs or MEP50 incubated with GST-HBc, GST-HBc-ΔC or GST alone on glutathione-Sepharose beads; Western blot with anti-Flag; only the target purified
[5] = target: GST-HBc (full-length HBV core protein, aa 1-185, genotype A, subtype adw2, fused to GST) (Hepatitis B virus, genotype A, subtype adw2) (UniProt P03148); experiment: pull-down; GST-HBc or GST alone (0.5 μg) on glutathione-Sepharose beads incubated with 3 to 10 μl of in vitro translated Flag-tagged proteins in binding buffer (10 mM Tris pH 7.6, 100 mM NaCl, 0.1 mM EDTA, 1 mM DTT, 5 mM MgCl2, 0.5% Igepal CA-630, 8% glycerol), 4°C, 3 h; Western blot with anti-Flag; only the target purified

Substance: HBc-V5/AP (full-length HBc, aa 1-185, genotype A, subtype adw2, with V5 tag and AP tag) (from UniProt P03148 1-185)
- binding [1]: binds
- binding [2]: no binding
- binding [3]: binds weakly

Substance: MEP50/WDR77 (methylosome protein 50), Flag-tagged, expressed in HEK293T cells (from UniProt Q9BQA1 1-342)
- binding [4]: binds

Substance: MEP50/WDR77 (methylosome protein 50), Flag-tagged, in vitro translated (from UniProt Q9BQA1 1-342)
- binding [5]: binds

Substance: PRMT1, Flag-tagged, in vitro translated (from UniProt Q99873 1-371) (enzyme)
- binding [5]: no binding

Substance: PRMT5v1 (PRMT5 splice variant 1, isoform a), Flag-tagged, expressed in HEK293T cells (from UniProt O14744 1-637) (enzyme)
- binding [4]: binds

Substance: PRMT5v1 (PRMT5 splice variant 1, isoform a), Flag-tagged, in vitro translated (from UniProt O14744 1-637) (enzyme)
- binding [5]: binds

Substance: PRMT5v2 (PRMT5 splice variant 2, isoform b), Flag-tagged, expressed in HEK293T cells (from UniProt O14744-2 1-620) (enzyme)
- binding [4]: binds
